Where “and” joins values, the source holds several entries; their conditions need not be identical. Equal entries are not always repeated. Screen size: about 420,000 compounds; about 50,000 (12%) were called active. This list was built around the results that the source calls inconclusive (neither active nor inactive); the mix of calls is not that of the screen. The call rests on the fitted dose curve; in most records, active means well fitted inhibition curve with a large enough effect; inconclusive means small, poorly fitted or top-dose-only effect; inactive means flat fitted curve, though single readings scatter. No potency is given beside an inconclusive call; the fits are too rough.
assay: qHTS for Inhibitors of human tyrosyl-DNA phosphodiesterase 1 (TDP1): qHTS in cells in presence of CPT; conditions: chicken DT40 Tdp1-/-;hTDP1 cells + 20 nM CPT, ATP luminescence, 48 h; activity change, negative = growth inhibition: at 46.2 µM (top of the series); further: nearly all actives have a fitted effect of over 55% in size
Outline: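 Chicken DT40 Tdp1-/- cells stably complemented with human TDP1 were seeded at 400 cells/well in medium containing 20 nM camptothecin, exposed to pin-transferred compounds, and grown at 37 °C for at least 48 hr. Viability was read as ATP luminescence.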
On the % scale 0 is the no-effect control and ±100 the full control effect; potency means the concentration at half of the fitted maximal effect; tags describe the fitted curve by direction and shape.

SMILES	Potency	activity change, negative = growth inhibition
O=c1cc(N2CCOCC2)oc2c(-c3ccccc3)cccc12	active: 13.3 µM and active: 5.62 µM and active: 8.2 µM	
CCCCOc1ccc(N(CC(=O)NCc2ccccc2)C(=O)c2csnn2)cc1	inconclusive [inhibitor, single point]	
CCN1C(=O)[C@H]2[C@@H](c3ccc(C)cc3)N3C(=O)N(c4cccc(Br)c4)C(=O)[C@@]3(C)[C@H]2C1=O	inconclusive [inhibitor, single point]	
O=C(CCC1CCCN(C(=O)c2ccco2)C1)NCc1ccccc1F (stereo not drawn)	active: 18.4 µM	
O=C(OC(C(=O)NC1CCCCC1)c1ccc(C(F)(F)F)cc1)c1ccco1 (stereo not drawn)	inactive	
CC(Sc1ccc(S(=O)(=O)N2CCN(C)CC2)cn1)C(=O)NC1(C#N)CCCCC1 (stereo not drawn)	inactive	
O=C(O)CSc1c2c(nc3cc(C(=O)NCCN4CCOCC4)ccc13)CCC2	inactive	
CCOc1cccc2sc(N(CCCN(C)C)C(=O)c3ccc(C(=O)c4ccccc4)cc3)nc12	inconclusive [inhibitor, single point]	
Cc1cc(C)n2nc(N)c(N=Nc3ccccc3)c2n1	inconclusive [inhibitor, single point]	
Cc1ccc2nc(SCC(=O)NC(=O)NCc3ccco3)[nH]c2c1	inactive	
CCCCOc1ccc(C(=O)Nc2ccc3c(c2)CCCN3S(=O)(=O)c2ccc(C)cc2)cc1	inconclusive [inhibitor, full curve]	
Cc1cc(NC(=O)CSc2cn(CC(=O)N(C(C)C)C(C)C)c3ccccc23)no1	inactive	
COc1ccc(S(=O)(=O)NNC(=O)c2csc(-n3nc(C)cc3C(F)(F)F)n2)cc1OC	inconclusive [inhibitor, single point]	
Nc1nc(SCC(=O)Nc2cc(Cl)ccc2Cl)n[nH]1	inconclusive [inhibitor, single point]	
Cc1ccc(C(=O)CSc2nc(-c3ccccc3)ccc2C#N)cc1	inconclusive [inhibitor, single point]	
Cc1ccc2ncnc(Oc3ncccc3[N+](=O)[O-])c2c1	active: 5.8 µM	
Cc1noc(C)c1COc1ccc(C(=O)OCc2nnc(-c3ccc(Cl)cc3)o2)cc1		inconclusive: -2.45% [inhibitor]
CCOc1ccc(NC(=O)Cn2c(=O)cc(C)c3c(C)nn(-c4ccc(CC)cc4)c32)cc1		inconclusive: -31.2% [inhibitor]
COc1ccc(S(=O)(=O)NC(=O)C2(C)CCN2C(=O)CCC2CCCC2)cc1OC (stereo not drawn)		inconclusive: -34.4% [inhibitor]
Cc1ccc(S(=O)(=O)N2CCN(C(=O)N3CCOCC3)CC2)cc1C		inconclusive: -33.1% [inhibitor]
O=c1c2ccccc2n2c(-c3ccc(C(F)(F)F)cc3)nnc2n1Cc1ccccc1	inconclusive [inhibitor, partial curve]	
CC(C)OCCCNC(=O)c1c(N)n(/N=C/c2ccccn2)c2nc3ccccc3nc12	inconclusive [inhibitor, single point]	
CN(C(=O)COC(=O)c1ccccc1C(=O)N1CCN(c2ccccc2)CC1)c1ccccc1	inconclusive [inhibitor, single point]	

SMILES	Potency	activity change, negative = growth inhibition
Cc1nc2ccccc2nc1C	inactive	
Cc1nc(C(=O)NNC(=O)c2ccccc2Cl)c(C(F)(F)F)o1	inactive	
CSc1ccccc1NC(=O)Cc1ccccc1[N+](=O)[O-]	inactive	
CC(C)c1nc2ccc(NC(=O)C34CC5CC(CC(C5)C3)C4)cc2[nH]1	inconclusive [inhibitor, partial curve, poor fit]	
FC(F)Oc1ccc(NC(=S)NCc2ccccc2)cc1Cl	active: 15.8 µM	
Cc1cc2oc(=O)cc(CN3CCN(Cc4ccccc4)CC3)c2cc1C	inconclusive [inhibitor, single point]	
C=CCn1c(SCC(=O)Nc2c(C)n(C)n(-c3ccccc3)c2=O)nc2sc(C)c(C)c2c1=O	inactive	
O=C(CCN1C(=O)/C(=C/c2cccc(Br)c2)SC1=S)Nc1cccnc1	inconclusive [inhibitor, single point]	
CC(C)c1ccc(/C=C(\C#N)c2nc(-c3ccc(O)cc3)cs2)cc1	active: 3.26 µM	
O/N=C/c1ccn(-c2ccc(Br)cc2)c1	inactive	
Cc1ccc(NC(=O)C2CCCC2)c(Br)c1	inactive	
COc1cc(-c2nn3c(C4CCCCC4)nnc3s2)cc(OC)c1OC	inconclusive [inhibitor, single point]	
O=C1C2CCCN2C(=O)N1CCCN1CCN(c2cccc(Cl)c2)CC1 (stereo not drawn)	inactive	
COc1ccc2[nH]c3c(=O)n(CCCCC(=O)N4CCCC4)c(=S)[nH]c3c2c1	inconclusive [inhibitor, partial curve]	
CCOC(=O)c1cnc(SCC(=O)c2ccccc2)nc1N	inconclusive [inhibitor, full curve, poor fit]	
O=C(C1CCCCC1)N(Cc1cccnc1)c1nc2ccc(F)cc2s1	inconclusive [inhibitor, single point]	
O=C(O)/C=C/C(=O)N(CC1CCCO1)C1CC(=O)N(c2c(Cl)cccc2Cl)C1=O (stereo not drawn)	inactive	
Cn1c(NCC(O)CO)nc2c1c(=O)n(Cc1ccc(Cl)c(Cl)c1)c(=O)n2C (stereo not drawn)	inconclusive [inhibitor, single point]	
COc1ccc(C(CNC(=O)c2cccc(S(=O)(=O)Nc3ccc(F)cc3)c2)N2CCCC2)cc1 (stereo not drawn)	inconclusive [inhibitor, single point]	
CC(C)(C)c1ccc(C(=O)NNC(=S)NCc2ccco2)cc1	inconclusive [inhibitor, single point]	
Cc1ccc2c(c1)[C@H]1[C@H](CO2)[C@H](c2ccccc2)[C@]2(C)C(=O)N(Cc3ccco3)CC(=O)N12	inconclusive [inhibitor, single point]	
O=S(=O)(c1ccccc1)N1CCCC1c1nc2ccccc2s1 (stereo not drawn)	inconclusive [inhibitor, single point]	
COC(=O)N/N=C/c1cc(Cl)cc(Cl)c1OCc1ccc(F)cc1	inconclusive [inhibitor, single point]	

SMILES	Potency	activity change, negative = growth inhibition
Cc1ccccc1Cn1c(C)c(C(=O)NCc2cccc(C(F)(F)F)c2)sc1=O	inconclusive [inhibitor, single point]	
C/C(Cn1nnc([N+](=O)[O-])n1)=N\NC(=O)c1ccc(C)cc1	active: 13 µM	
COc1ccccc1CCC(=O)Nc1ccc2c(c1)CN(CCCn1cccn1)CC2	inactive	
Cc1ccccc1NC(NC(=O)c1cccs1)C(Cl)(Cl)Cl (stereo not drawn)	inconclusive [inhibitor, single point]	
O=c1c2[nH]cnc2n(-c2cccc(Br)c2)c(=O)n1Cc1ccccc1	inconclusive [inhibitor, single point]	
CN(c1ccccc1)S(=O)(=O)c1ccc(Cl)c(C(=O)NCc2ccco2)c1	inconclusive [inhibitor, partial curve, poor fit]	
Cc1ccc(-c2n[nH]c(=S)c3ccccc23)cc1	inconclusive [inhibitor, single point]	
CCOC(=O)c1c(Nc2cccc(C)c2)nnc(-c2ccccc2)c1-c1ccccc1	inconclusive [inhibitor, single point]	
C[C@@H]1CNC(=O)c2c(C(=O)NCc3ccc(CNC(=O)OC(C)(C)C)cc3)ncn21	inconclusive [inhibitor, single point]	
Cc1cccc(C)c1-n1nnnc1C(c1ccnc2ccccc12)N1CCCN(C(=O)OC(C)(C)C)CC1 (stereo not drawn)	inconclusive [inhibitor, single point]	
Cn1nccc1C(=O)NC1CCN(Cc2ccccc2)CC1	inactive	
Cc1ccccc1N1CCN(C2CCCN(C(=O)c3ccc(Cl)s3)C2)CC1 (stereo not drawn)	inconclusive [inhibitor, single point]	
Cc1c(C(=O)N2CCOCC2)sc(NC(=O)c2ccc([N+](=O)[O-])cc2)c1C#N	inconclusive [inhibitor, single point]	
CC(NC(=O)C(C)N1c2cccc3cccc(c23)S1(=O)=O)c1ccccc1 (stereo not drawn)	inconclusive [inhibitor, single point]	
CC(=O)c1ccc(NC(=O)CN2CCC(C(=O)c3ccc4c(c3)OCCO4)CC2)cc1	inactive	
CCc1ccc2occ(CC(=O)N(Cc3ccc(N(C)C)cc3)C3CCS(=O)(=O)C3)c2c1 (stereo not drawn)	inconclusive [inhibitor, single point]	
COc1cc(-c2ccno2)ccc1S(=O)(=O)N1CCN(c2ccc(F)cc2)CC1	inconclusive [inhibitor, single point]	
CCOC(=O)c1cccc(NC(=O)c2sc3nc[nH]c(=O)c3c2C)c1	inconclusive [inhibitor, single point]	
O=C(Nc1ccc(N2CCOCC2)cc1)c1cccc2c(Br)cccc12	inactive	
O=C(NC1CCCCC1)C(c1ccc(F)cc1)N(C(=O)c1cccs1)c1ccc2c(c1)OCO2 (stereo not drawn)	inconclusive [inhibitor, single point]	
Cc1cccc(/C=C/C(=O)c2ccc([N+](=O)[O-])o2)c1	active: 0.58 µM	
O=C(OCCOc1ccccc1Cl)c1cc(S(=O)(=O)N2CCCCC2)ccc1N1CCOCC1	inconclusive [inhibitor, single point]	

Source: PubChem BioAssay AID686979 (National Center for Advancing Translational Sciences (NCATS), 2013)
